Source: paper PMC9911399, “Two distinct binding modes provide the RNA-binding protein RbFox with extraordinary sequence specificity”
Residue numbers refer to the chain shown, from its start. Some of the results follow.

T1: RBFOX1 RRM RbFoxmut (Fox-RRM*) (Homo sapiens, UniProt Q9NWB1 109-208, R118D;E147R;N151S;E152T)
T1 sequence: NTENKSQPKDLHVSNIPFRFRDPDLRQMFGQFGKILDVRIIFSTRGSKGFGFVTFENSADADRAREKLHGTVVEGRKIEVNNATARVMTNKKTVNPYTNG

B1: GGUAUUC (DNA:RNA)
RNA: GGGAGACCGGAAUUCAGAUUGUCCGGUAUUCUUAAAUCCCGUCGUAGCCACCA
DNA 1: CAATCTGAATTCCGGTCTCCC
DNA 2: TGGTGGCTACGACGGGATT
B2: UGCUUAA (DNA:RNA)
RNA: B1 RNA with G25U, U27C, A28U, U30A, C31A
DNA 1: CAATCTGAATTCCGGTCTCCC
DNA 2: TGGTGGCTACGACGGGATT
B3: UGCAUUG (DNA:RNA)
RNA: B1 RNA with G25U, U27C, C31G
DNA 1: CAATCTGAATTCCGGTCTCCC
DNA 2: TGGTGGCTACGACGGGATT
B4: GGUCAUC (DNA:RNA)
RNA: B1 RNA with A28C, U29A
DNA 1: CAATCTGAATTCCGGTCTCCC
DNA 2: TGGTGGCTACGACGGGATT
B5: CCAACGG (DNA:RNA)
RNA: B1 RNA with G25C, G26C, U27A, U29C, U30G, C31G
DNA 1: CAATCTGAATTCCGGTCTCCC
DNA 2: TGGTGGCTACGACGGGATT
B6: GACGGUC (DNA:RNA)
RNA: B1 RNA with G26A, U27C, A28G, U29G
DNA 1: CAATCTGAATTCCGGTCTCCC
DNA 2: TGGTGGCTACGACGGGATT
B7: UUCAGAC (DNA:RNA)
RNA: B1 RNA with G25U, G26U, U27C, U29G, U30A
DNA 1: CAATCTGAATTCCGGTCTCCC
DNA 2: TGGTGGCTACGACGGGATT
B8: AGUAGUC (DNA:RNA)
RNA: B1 RNA with G25A, U29G
DNA 1: CAATCTGAATTCCGGTCTCCC
DNA 2: TGGTGGCTACGACGGGATT
B9: CAAGGGC (DNA:RNA)
RNA: B1 RNA with G25C, G26A, U27A, A28G, U29G, U30G
DNA 1: CAATCTGAATTCCGGTCTCCC
DNA 2: TGGTGGCTACGACGGGATT
B10: ACGCCCG (DNA:RNA)
RNA: GGGAGACCGGAAUUCAGAUUGUCCACGCCCGUUAAAUCCCGUCGUAGCCACCA
DNA 1: CAATCTGAATTCCGGTCTCCC
DNA 2: TGGTGGCTACGACGGGATT
B11: AACUAUG (DNA:RNA)
RNA: B10 RNA with C26A, G27C, C28U, C29A, C30U
DNA 1: CAATCTGAATTCCGGTCTCCC
DNA 2: TGGTGGCTACGACGGGATT
B12: CUUUCAU (DNA:RNA)
RNA: B10 RNA with A25C, C26U, G27U, C28U, C30A, G31U
DNA 1: CAATCTGAATTCCGGTCTCCC
DNA 2: TGGTGGCTACGACGGGATT
B13: AGCCUUG (DNA:RNA)
RNA: B10 RNA with C26G, G27C, C29U, C30U
DNA 1: CAATCTGAATTCCGGTCTCCC
DNA 2: TGGTGGCTACGACGGGATT
B14: AGCUGGC (DNA:RNA)
RNA: B1 RNA with G25A, U27C, A28U, U29G, U30G
DNA 1: CAATCTGAATTCCGGTCTCCC
DNA 2: TGGTGGCTACGACGGGATT
B15: UGCGACC (DNA:RNA)
RNA: B1 RNA with G25U, U27C, A28G, U29A, U30C
DNA 1: CAATCTGAATTCCGGTCTCCC
DNA 2: TGGTGGCTACGACGGGATT
B16: GACAACC (DNA:RNA)
RNA: B1 RNA with G26A, U27C, U29A, U30C
DNA 1: CAATCTGAATTCCGGTCTCCC
DNA 2: TGGTGGCTACGACGGGATT
B17: CACCCCC (DNA:RNA)
RNA: B10 RNA with A25C, C26A, G27C, G31C
DNA 1: CAATCTGAATTCCGGTCTCCC
DNA 2: TGGTGGCTACGACGGGATT
B18: UUGCGUC (DNA:RNA)
RNA: B10 RNA with A25U, C26U, C29G, C30U, G31C
DNA 1: CAATCTGAATTCCGGTCTCCC
DNA 2: TGGTGGCTACGACGGGATT
B19: GUUCACA (DNA:RNA)
RNA: B10 RNA with A25G, C26U, G27U, C29A, G31A
DNA 1: CAATCTGAATTCCGGTCTCCC
DNA 2: TGGTGGCTACGACGGGATT
B20: GCACAUA (DNA:RNA)
RNA: B10 RNA with A25G, G27A, C29A, C30U, G31A
DNA 1: CAATCTGAATTCCGGTCTCCC
DNA 2: TGGTGGCTACGACGGGATT
B21: ACUGAGA (DNA:RNA)
RNA: B10 RNA with G27U, C28G, C29A, C30G, G31A
DNA 1: CAATCTGAATTCCGGTCTCCC
DNA 2: TGGTGGCTACGACGGGATT
B22: GUAUGGU (DNA:RNA)
RNA: B1 RNA with G26U, U27A, A28U, U29G, U30G, C31U
DNA 1: CAATCTGAATTCCGGTCTCCC
DNA 2: TGGTGGCTACGACGGGATT
B23: GCCUCUA (DNA:RNA)
RNA: B10 RNA with A25G, G27C, C28U, C30U, G31A
DNA 1: CAATCTGAATTCCGGTCTCCC
DNA 2: TGGTGGCTACGACGGGATT
B24: CUCGAGC (DNA:RNA)
RNA: B1 RNA with G25C, G26U, U27C, A28G, U29A, U30G
DNA 1: CAATCTGAATTCCGGTCTCCC
DNA 2: TGGTGGCTACGACGGGATT
B25: UGCAGAC (DNA:RNA)
RNA: B1 RNA with G25U, U27C, U29G, U30A
DNA 1: CAATCTGAATTCCGGTCTCCC
DNA 2: TGGTGGCTACGACGGGATT
B26: UGAGAUA (DNA:RNA)
RNA: B1 RNA with G25U, U27A, A28G, U29A, C31A
DNA 1: CAATCTGAATTCCGGTCTCCC
DNA 2: TGGTGGCTACGACGGGATT
B27: GUUCCUC (DNA:RNA)
RNA: B1 RNA with G26U, A28C, U29C
DNA 1: CAATCTGAATTCCGGTCTCCC
DNA 2: TGGTGGCTACGACGGGATT
B28: CGGAGGU (DNA:RNA)
RNA: B1 RNA with G25C, U27G, U29G, U30G, C31U
DNA 1: CAATCTGAATTCCGGTCTCCC
DNA 2: TGGTGGCTACGACGGGATT
B29: UAAUUCC (DNA:RNA)
RNA: B1 RNA with G25U, G26A, U27A, A28U, U30C
DNA 1: CAATCTGAATTCCGGTCTCCC
DNA 2: TGGTGGCTACGACGGGATT
B30: UCUCGAA (DNA:RNA)
RNA: B10 RNA with A25U, G27U, C29G, C30A, G31A
DNA 1: CAATCTGAATTCCGGTCTCCC
DNA 2: TGGTGGCTACGACGGGATT
B31: AUAUACA (DNA:RNA)
RNA: B10 RNA with C26U, G27A, C28U, C29A, G31A
DNA 1: CAATCTGAATTCCGGTCTCCC
DNA 2: TGGTGGCTACGACGGGATT

target: T1, RBFOX1 RRM RbFoxmut (Fox-RRM*); test: EMSA; HiTS-Eq, 1 nM pool, 10 min; buffer printed only for the single-RNA assays: 10 mM Tris pH 7.5, 150 mM NaCl, 3.4 mM EDTA, 0.001% NP-40, 30 C; details: tags: His6 N-terminal (pET28a); label: 5' 32P
Summary of the method: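 A pool of RNA with 7 randomized nucleotides, 5′-radiolabelled and with DNA-annealed flanks, was equilibrated at 1 nM for 10 min in 50 µL with purified RbFox RRM, wild type or mutant, across increasing protein concentrations. Free RNA was separated by 8% native PAGE, excised, reverse-transcribed, barcoded by PCR and sequenced. Relative association constants were obtained from read-count changes of each RNA species versus the control reaction and normalised to the cognate motif.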

Binder | binding signal
B1 | 0.126 KA relative to UGCAUGU
B2 | 0.133 KA relative to UGCAUGU
B3 | 0.494 KA relative to UGCAUGU
B4 | 0.152 KA relative to UGCAUGU
B5 | 0.0596 KA relative to UGCAUGU
B6 | 0.117 KA relative to UGCAUGU
B7 | 0.0589 KA relative to UGCAUGU
B8 | 0.118 KA relative to UGCAUGU
B9 | 0.07 KA relative to UGCAUGU
B10 | 0.0806 KA relative to UGCAUGU
B11 | 0.114 KA relative to UGCAUGU
B12 | 0.0923 KA relative to UGCAUGU
B13 | 0.576 KA relative to UGCAUGU
B14 | 0.128 KA relative to UGCAUGU
B15 | 0.129 KA relative to UGCAUGU
B16 | 0.0246 KA relative to UGCAUGU

Binder | binding signal
B17 | 0.08 KA relative to UGCAUGU
B18 | 0.126 KA relative to UGCAUGU
B19 | 0.0899 KA relative to UGCAUGU
B20 | 0.111 KA relative to UGCAUGU
B21 | 0.0809 KA relative to UGCAUGU
B22 | 0.325 KA relative to UGCAUGU
B23 | 0.0902 KA relative to UGCAUGU
B24 | 0.0956 KA relative to UGCAUGU
B25 | 0.0961 KA relative to UGCAUGU
B26 | 0.127 KA relative to UGCAUGU
B27 | 0.0747 KA relative to UGCAUGU
B28 | 0.119 KA relative to UGCAUGU
B29 | 0.067 KA relative to UGCAUGU
B30 | 0.08 KA relative to UGCAUGU
B31 | 0.0965 KA relative to UGCAUGU
